Some of the results follow.
B1: PhoQ; a variant is named by its letters at X, in order, P23837 (parent)
chain: MKKLLRLFFPLSLRVRFLLATAAVVLVLSLAYGMVALIGYSVSFDKTTFRLLRGESNLFYTLAKWENNKLHVELPENIDKQSPTMTLIYDENGQLLWAQRDVPWLMKMIQPDWLKSNGFHEIEADVNDTSLLLSGDHSIQQQLQEVREDDDDAEMTHSVAVNVYPATSRMPKLTIVVVDTIPVELKSSYMVWSWFIYVLSANLLLVIPLLWVAAWWSLRPIEALAKEVRELEEHNRELLNPATTRELTSLVRNLNRLLKSERERYDKYRTTLTDLTHSLKTPLXXLQXXLRSLRSEKMSVSDAEPVMLEQISRISQQIGYYLHRASMRGGTLLSRELHPVAPLLDNLTSALNKVYQRKGVNISLDISPEISFVGEQNDFVEVMGNVLDNACKYCLEFVEISARQTDEHLYIVVEDDGPGIPLSKREVIFDRGQRVDTLRPGQGVGLAVAREITEQYEGKIVAGESMLGGARMEVIFGRQHSAPKDE

Variants of: B1
Assay: enrichment ratio after two sorts for PhoP signalling (ratio (wild type AVST 3.29)); higher = more functional
Settings: with PhoP (E. coli)

Variant	enrichment ratio
NICL	3.87
IEVV	≤ 0.25
YGPS	≤ 0.25
WFNE	≤ 0.25
SPTY	≤ 0.25
KKIV	≤ 0.25
TCPH	≤ 0.25
ELQK	≤ 0.25
TAKA	≤ 0.25
SVTG	13.5
PWME	≤ 0.25
EARA	≤ 0.25
IGKL	≤ 0.25
IFVD	≤ 0.25
AEDM	≤ 0.25
MVYH	≤ 0.25
HDVY	≤ 0.25
HHEY	≤ 0.25
LPPH	≤ 0.25
LEQF	≤ 0.25
SFNV	≤ 0.25
HSQN	≤ 0.25
HYID	≤ 0.25
YWYE	≤ 0.25
SCGG	11.1

Variant	enrichment ratio
HMPD	≤ 0.25
FWLN	≤ 0.25
RDRP	≤ 0.25
FVFN	≤ 0.25
TIQA	4.81
QQIA	≤ 0.25
EMGS	≤ 0.25
SYCR	≤ 0.25
PTQI	≤ 0.25
KITP	≤ 0.25
LRYF	≤ 0.25
NILI	0.917
PCPF	≤ 0.25
DDKD	≤ 0.25
APYW	≤ 0.25
YNRC	≤ 0.25
PYQD	≤ 0.25
NPLF	≤ 0.25
ERGC	≤ 0.25
MTGN	≤ 0.25
SKMK	≤ 0.25
GPWC	≤ 0.25
ACRH	≤ 0.25
ITGA	≤ 0.25
PVCY	≤ 0.25

Variant	enrichment ratio
ANVH	≤ 0.25
NWQD	≤ 0.25
PILS	≤ 0.25
AWVQ	1.11
GIPW	≤ 0.25
GAYF	≤ 0.25
FLMN	≤ 0.25
YHQW	≤ 0.25
LRNP	≤ 0.25
DEFH	≤ 0.25
FKWV	≤ 0.25
PMNM	≤ 0.25
SIGD	7.24
KRSR	≤ 0.25
LPQF	≤ 0.25
HKFM	≤ 0.25
HAMK	≤ 0.25
DSIL	≤ 0.25
FCCI	≤ 0.25
AWGA	≤ 0.25
IEAK	≤ 0.25
VYNH	≤ 0.25
DDSD	≤ 0.25
YKGQ	≤ 0.25
WPCR	≤ 0.25

Variant	enrichment ratio
VMAN	≤ 0.25
YGAD	≤ 0.25
MCGM	12.2
RNND	≤ 0.25
RFQC	≤ 0.25
GPKY	≤ 0.25
HWLT	≤ 0.25
NQTN	≤ 0.25
ERVY	≤ 0.25
DVFG	≤ 0.25
VICM	≤ 0.25
RLGQ	≤ 0.25
LIQD	≤ 0.25
MCRY	≤ 0.25
LGQL	≤ 0.25
IMMY	≤ 0.25
IWPD	≤ 0.25
PNYW	≤ 0.25
NFFD	≤ 0.25
HMER	≤ 0.25
QPIG	≤ 0.25
KRNG	≤ 0.25
LWRQ	≤ 0.25
PAIS	≤ 0.25
AACK	≤ 0.25

Variant	enrichment ratio
VDTA	0.656
WWLH	≤ 0.25
GFGH	≤ 0.25
WTNG	≤ 0.25
REGP	0.634
PPGH	≤ 0.25
WSTH	≤ 0.25
CSPF	≤ 0.25
AASN	10.1
PLEH	≤ 0.25
AYVI	0.489
SYFF	≤ 0.25
MVWQ	10
HPAY	≤ 0.25
PQWL	≤ 0.25
GGDP	≤ 0.25
VYHG	≤ 0.25
VPST	≤ 0.25
RTHG	≤ 0.25
GAPD	≤ 0.25
FWFS	≤ 0.25
WVVG	≤ 0.25
LKTY	≤ 0.25
SYMG	12.5
FLST	≤ 0.25

Variant	enrichment ratio
VAQF	≤ 0.25
PSGH	≤ 0.25
VFDC	≤ 0.25
MWVD	≤ 0.25
PLFT	≤ 0.25
NKNH	≤ 0.25
TLYR	≤ 0.25
RLCN	≤ 0.25
AINY	≤ 0.25
HALF	3.03
IYHE	≤ 0.25
VIAK	≤ 0.25
ATDG	≤ 0.25
PSVM	≤ 0.25
HFVF	≤ 0.25
QDSR	≤ 0.25
TIPC	≤ 0.25
TACF	18.8
DYTG	≤ 0.25
VGNM	≤ 0.25
KSLA	≤ 0.25
IVQW	≤ 0.25
YQST	≤ 0.25
KTMH	≤ 0.25
MTFN	16.9

Variant	enrichment ratio
DHRL	≤ 0.25
AQRK	≤ 0.25
LVMH	≤ 0.25
QHVF	≤ 0.25
AWPQ	≤ 0.25
DAQC	≤ 0.25
EHGY	≤ 0.25
PWYY	≤ 0.25
LFCE	≤ 0.25
NGFY	≤ 0.25
PSNN	≤ 0.25
MTYN	≤ 0.25
NNRF	≤ 0.25
RMEC	≤ 0.25
NSWS	≤ 0.25
WYGS	≤ 0.25
QKTH	≤ 0.25
LRWF	≤ 0.25
GTTR	≤ 0.25
AMME	8.23
VDFE	≤ 0.25
FMYE	≤ 0.25
YYFK	≤ 0.25
TRMI	8.07
ELQL	≤ 0.25

Variant	enrichment ratio
SRVA	≤ 0.25
SSCC	17.1
TFTP	≤ 0.25
QVLS	≤ 0.25
PLFS	≤ 0.25
RPDG	≤ 0.25
SYTD	≤ 0.25
GYIH	≤ 0.25
QNVN	≤ 0.25
PVKI	≤ 0.25
PYEF	≤ 0.25
EDFM	≤ 0.25
FVGA	≤ 0.25
FGQD	≤ 0.25
VSYL	1.63
QLFG	≤ 0.25
FGYV	≤ 0.25
ATPH	≤ 0.25
GCAW	≤ 0.25
MWNG	≤ 0.25
